Source: PubChem BioAssay AID485294 (National Center for Advancing Translational Sciences (NCATS), 2010)
Values joined by “and” are separate entries in the source; they are usually repeats but may differ in a detail not shown here. Equal values may be shown once. The campaign covered roughly 370,000 compounds. About 150 (0.041%) were called active. This list was built around the results that the source calls inconclusive (neither active nor inactive); the mix of calls is not that of the screen. Calls follow the shape of the dose curve; as a rule, active = well fitted inhibition curve with a large enough effect; inconclusive = small, poorly fitted or top-dose-only effect; inactive = flat fitted curve, though single readings scatter. Where the call is inconclusive, the potency comes from a doubtful curve fit.

molecular target: Beta-lactamase (Escherichia coli (strain K12)) (UniProt P00811); experiment: qHTS Inhibitors of AmpC Beta-Lactamase (assay with detergent); conditions: AmpC hydrolysis of nitrocefin, absorbance 480 nm, 0.01% Triton; activity change, negative = inhibition: at 114 µM (top of the series); also: nearly all actives have a fitted effect of over 25% in size;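 as to activity change, negative = inhibition: 0% = no-compound wells and -100% = no-enzyme wells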
Chain of UniProt P00811 (P00811 whole entry, looked up): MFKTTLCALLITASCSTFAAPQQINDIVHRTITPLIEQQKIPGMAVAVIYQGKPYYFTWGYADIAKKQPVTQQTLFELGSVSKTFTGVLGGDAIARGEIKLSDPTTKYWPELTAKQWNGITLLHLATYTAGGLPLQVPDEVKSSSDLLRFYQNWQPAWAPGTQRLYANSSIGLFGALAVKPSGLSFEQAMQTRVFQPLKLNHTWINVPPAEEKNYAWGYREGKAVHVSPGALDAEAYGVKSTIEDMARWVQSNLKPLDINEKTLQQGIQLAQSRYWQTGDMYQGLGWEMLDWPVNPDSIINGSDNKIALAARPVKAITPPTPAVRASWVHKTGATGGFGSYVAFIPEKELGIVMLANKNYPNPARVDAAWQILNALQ
How it was run: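 AmpC (5.3 nM in the dispensed reagent) in 20 mM phosphate pH 7.0 with 0.01% (detergent screen) or 0.0001% Triton X-100 was preincubated with compounds for 15 min at room temperature. Nitrocefin was then added from an 800 uM solution, and hydrolysis was followed at 480 nm.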
Potency is read from the fitted curve at half-maximal effect; tags tell the direction and shape of the fitted curve.

SMILES	Potency	activity change, negative = inhibition
C=CCN1C(=O)/C(=C2/Sc3ccc(OC)cc3N2CC)SC1=S	inconclusive: 0.631 µM [inhibitor, full curve, poor fit]	
COc1ccc(CN2CNc3nc4ccccc4n3C2)cc1	inconclusive: 1 µM [inhibitor, full curve, poor fit]	
CCC(C)(C)n1nnnc1C(c1cccnc1)N1CCN(c2cccc(C(F)(F)F)c2)CC1 (stereo not given)		inactive: -1.77%
CN(CC(O)COCc1ccc2c(c1)OCO2)C1CCCCC1 (stereo not given)	inconclusive: 56.2 µM [inhibitor, full curve, poor fit]	
CCc1ccc(-c2[nH]c3c(c2-c2c(-n4cccc4)n(C)c(=O)[nH]c2=O)c(=O)[nH]c(=O)n3C)cc1		inactive: 12.9%
CC1CCN(C(c2cc3cc4c(cc3[nH]c2=O)OCO4)c2nnnn2CC2CCCO2)CC1 (stereo not given)	inconclusive: 0.02 µM [inhibitor, full curve]	
Cc1nnc(SCC(=O)NNC(=O)COc2ccc(Cl)cc2)s1	inconclusive: 25.1 µM [inhibitor, full curve, poor fit]	
CCC(=O)Nc1cccc(-c2nc3ncccc3o2)c1C		inactive: 0.773%
CCCn1nnc(NC(=O)c2sc3ccccc3c2Cl)n1	inconclusive: 4.47 µM [inhibitor, full curve, poor fit]	
CC(=O)COC(=O)C1=NN(c2ccccc2)C(=O)CC1	inconclusive: 0.631 µM [inhibitor, full curve, poor fit]	
C=CCNC(=O)NC(=O)COC(=O)CCCSc1nc2ccccc2[nH]1	inconclusive: 0.708 µM [inhibitor, full curve, poor fit]	
CSc1ccc(S(=O)(=O)Nc2c(C)n(C)n(-c3ccccc3)c2=O)cc1	inconclusive: 0.631 µM [inhibitor, full curve, poor fit]	
Cc1ccc(SCC(=O)OCC(=O)N2CCN(C(=O)c3ccco3)CC2)c(C)c1		inactive: -18.5%
CC1(c2ccc3ccccc3c2)NC(=O)N(CC(=O)N2CCC(C(N)=O)CC2)C1=O (stereo not given)	inconclusive: 0.316 µM [inhibitor, full curve, poor fit]	
C=CCn1c(=O)c2c(nc(Br)n2Cc2ccccc2Cl)n(C)c1=O	inconclusive: 5.62 µM [inhibitor, full curve, poor fit]	
COC(=O)c1ccc(CSc2nc3c(cnn3-c3ccccc3)c(=O)[nH]2)o1	inconclusive: 10 µM [inhibitor, partial curve, poor fit]	
COC(=O)/C(=N/Nc1ccccc1)N1CCCc2ccccc21		inactive: -1.07%
COc1cccc(NC(=S)NN2CCN(C)CC2)c1	inconclusive: 10 µM [inhibitor, full curve, poor fit]	
Clc1c(-c2ccccc2)nnn1-c1ccccc1		inactive: -10.6%
COc1ccc(NC(=O)CN2C(=O)CC(C)(C)S(=O)(=O)c3ccccc32)cc1	inconclusive: 0.562 µM [inhibitor, full curve, poor fit]	
Cc1cc(C)nc(SCC(=O)c2ccc(F)c(C)c2)n1	inconclusive: 100 µM [inhibitor, single point]	
COc1ccc(C2CC(c3ccc(Cl)cc3)=NN2C(=O)c2cccc([N+](=O)[O-])c2)cc1 (stereo not given)	inconclusive: 0.708 µM [inhibitor, full curve, poor fit]	
Cc1ccc(/C=C/C(=O)Nc2nnc(C)s2)o1		inactive: 0.0598%
CC(=O)N/C(=N/c1nc(C)cc(C)n1)Nc1cc(C)cc(C)c1	inconclusive: 4.47 µM [inhibitor, full curve, poor fit]	

SMILES	Potency	activity change, negative = inhibition
CC(NC(=O)CCNC(=O)c1ccc(Br)cc1)c1ccc(-n2ccnc2)cc1 (stereo not given)	inconclusive: 89.1 µM [inhibitor, single point]	
O=C1c2ccccc2C(=O)N1CC#CCN1CCN(C(c2ccccc2)c2ccccc2)CC1		inactive: 5.84%
CSc1nnc([C@H](C)NC(=O)OC(C)(C)C)o1	inconclusive: 0.631 µM [inhibitor, full curve, poor fit]	
O=C(/C=C/c1cccc([N+](=O)[O-])c1)NCC1CCCO1 (stereo not given)		inactive: -1.07%
C(=C\c1ccccc1)/CSc1nnc(-c2cnccn2)n1Cc1ccco1		inactive: -1.85%
COc1ccc(C(=O)NC(=S)Nc2ccc(N3CCCC3)cc2)cc1	inconclusive: 39.8 µM [inhibitor, full curve, poor fit]	
COc1ccc(Oc2nc(C)cc(C)c2S(=O)(=O)c2ccc(C)cc2)cc1	inconclusive: 10 µM [inhibitor, full curve]	
CC1(C)CN=C(N(Cc2ccccc2)C(=O)Nc2ccccc2)S1		inactive: 5.33%
CC(/C=N/NC(=O)Cc1cccn1C)=C\c1ccccc1		inactive: -8.31%
Nc1nnc(SCCCC(=O)c2ccccc2)s1		inactive: -10.2%
COc1ccccc1N1CCN(C(=O)CCSCc2ccccc2F)CC1	inactive and inconclusive: 89.1 µM [inhibitor, single point]	
COc1ccc(Cc2nnc(NC(=O)c3cc(OC)cc(OC)c3)s2)cc1	inconclusive: 56.2 µM [inhibitor, partial curve, poor fit]	
CC12CCC3(CO)COC(c4ccccc4O1)C2C3 (stereo not given)	inconclusive: 112 µM [inhibitor, partial curve, poor fit]	
Cc1nc2ccc(C(C(F)(F)F)(C(F)(F)F)C(F)(F)F)cc2[nH]1		inactive: -4.63%
CCc1ccc(-c2cc(C(=O)NN3CCN(C)CC3)c3ccccc3n2)cc1	inconclusive: 44.7 µM [inhibitor, partial curve]	
COc1ccc(C2=NOC(C(=O)NCc3cccs3)C2)cc1OC (stereo not given)		inactive: -6%
O=C1N=C(N2CCN(c3ccccc3)CC2)S/C1=C/c1ccco1		inactive: -0.713%
COc1ccc(Cl)cc1NC(=O)CSc1nc(Nc2ccccc2)nc(N2CCOCC2)n1		inactive: 0.236%
CC(C)(C)OC(=O)NOCC(=O)N(CC(=O)c1ccccc1)Cc1ccccc1	inconclusive: 4.47 µM [inhibitor, full curve, poor fit]	
CC(=O)CSc1nnc(-c2ccc(S(=O)(=O)N3CCCC3)cc2)n1C	inconclusive: 5.62 µM [inhibitor, full curve, poor fit]	
COc1ccc(OCc2nnc(SCC(=O)N3C(C)CCCC3C)o2)cc1 (stereo not given)		inactive: -3.98%
COc1ccccc1CNC(=O)c1ccc(-c2ccccc2C(F)(F)F)o1	inconclusive: 3.98 µM [inhibitor, partial curve]	
O=C(Nc1ccc(OC(=O)c2cccnc2)cc1)c1cccnc1	inconclusive: 4.47 µM [inhibitor, partial curve]	
COc1ccc(Cl)cc1NC(=O)c1c(C(=O)Nc2cccc(C)c2C)sc2nc(C)cc(=O)n12		inactive: 16.5%

SMILES	Potency	activity change, negative = inhibition
Cc1cccc(N2CCN(C(=O)c3ccccc3NC(=O)C3CC=CCC3C(=O)O)CC2)c1 (stereo not given)	inconclusive: 0.631 µM [inhibitor, full curve, poor fit]	
O=C(CN1CCCCCC1)Nc1ccc([N+](=O)[O-])cc1Br	inconclusive: 56.2 µM [inhibitor, partial curve]	
COc1ccc2c(c1)NC1(O)c3ccccc3C(=O)C21O (stereo not given)	inconclusive: 2.24 µM [inhibitor, full curve, poor fit]	
O=C(Nc1ccccc1N1CCCCC1)c1cc(S(=O)(=O)N2CCOCC2)ccc1F	inconclusive: 0.562 µM [inhibitor, full curve, poor fit]	
c1ccc(CSc2nnc(-c3ccco3)n2Cc2ccco2)cc1		inactive: -9.67%
C/C(=N\NC(=O)c1ccc(NS(=O)(=O)c2cccs2)cc1)c1cccs1	inconclusive: 100 µM [inhibitor, partial curve, poor fit]	
CCCCSCc1nc2ccccn2c1Br		inactive: -2.05%
COc1ccc(NC(=O)CN(C)C(=O)CCNC(=O)Nc2ccccc2)cc1		inactive: -1.76%
Cc1nnc(SCC(=O)Nc2ccccc2F)n1-c1ccc(F)cc1	inconclusive: 39.8 µM [inhibitor, single point]	
CCCCNCCOCCOc1ccc(Cl)cc1Br	inconclusive: 12.6 µM [inhibitor, partial curve, poor fit]	
COc1ccc(-c2nc3ccccc3o2)cc1NC(=O)c1ccc(N2CCC(C)CC2)c([N+](=O)[O-])c1		inactive: -0.786%
CC1CCCN(S(=O)(=O)c2cccc(C(=O)NCc3ccco3)c2)C1 (stereo not given)	inconclusive: 1 µM [inhibitor, full curve, poor fit]	
CCCC(=O)Nc1ccc(Br)cn1	inconclusive: 3.55 µM [inhibitor, full curve, poor fit]	
CC(=O)Nc1ccc(S(=O)(=O)N2CCN(c3cc(C)ccc3C)CC2)cc1	inconclusive: 0.631 µM [inhibitor, full curve, poor fit]	
[O-][n+]1cccc2c(Br)cc(Br)c(O)c21		inactive: 5.18%
Cc1nn(-c2ccc(F)cc2)c(C)c1/C=C/C(=O)N1CCNC(=O)C1		inactive: 2.52%
N#Cc1c(-c2ccccc2)ccnc1Oc1ccccc1	inconclusive: 10 µM [inhibitor, full curve, poor fit]	
CN1CCN(/C=N/c2c(C#N)cnn2Cc2ccccc2)CC1	inconclusive: 11.2 µM [inhibitor, partial curve]	
O=c1c([N+](=O)[O-])c(NC2CCCCC2)c2ccccc2n1-c1ccccc1	inconclusive: 89.1 µM [inhibitor, single point]	
O=C(N/C(=C\c1ccc(Br)cc1)C(=O)N1CCOCC1)c1ccc([N+](=O)[O-])cc1	inconclusive: 8.91 µM [inhibitor, partial curve]	
CC(Oc1ccc(Br)cc1Br)C(=O)Nc1cccnc1Cl (stereo not given)	inconclusive: 1.26 µM [inhibitor, full curve, poor fit]	
COc1ccc(NC(=O)c2cc3ccccc3cc2O)cc1		inactive: -3.09%
